# Some of the results follow.
# Target: T1, OsWOX13 (Oryza sativa, UniProt Q5QMM3 1-267)
# T1 sequence: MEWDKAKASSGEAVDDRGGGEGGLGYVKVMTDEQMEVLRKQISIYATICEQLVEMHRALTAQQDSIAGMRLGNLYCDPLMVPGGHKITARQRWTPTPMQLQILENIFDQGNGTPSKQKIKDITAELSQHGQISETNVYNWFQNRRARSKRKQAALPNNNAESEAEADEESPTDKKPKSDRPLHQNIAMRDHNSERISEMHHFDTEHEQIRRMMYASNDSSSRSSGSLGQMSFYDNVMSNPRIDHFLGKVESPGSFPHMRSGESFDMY
# Experiment: protein-binding microarray (RPBM); PBS, 2% BSA, 51.3 ng/ul salmon testes DNA, 50 uM zinc acetate, 200 nM TF, 25 C, 1 h; high values mean tight binding
# Settings: protein: recombinant; tags: N-terminal polyhistidine and DsRed monomer fusion (pET32a); label: CyDye5-dUTP incorporated in the synthesized complementary strand; 3' TTTTT single-stranded linker to array surface; dsDNA, one strand shown
# How it was run: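 Ni–NTA purification followed expression in E. coli BL21-CodonPlus of transcription factors fused N-terminally to a polyhistidine tag and DsRed. At 200 nM in PBS with 2% BSA, salmon testes DNA and 50 µM zinc acetate, the protein was incubated for 1 h at 25 °C with a custom Agilent array that had been primer-extended with Cy5-dUTP and blocked with 2% BSA. After washing, the array was read on an Axon 4000B scanner. The binding signal is per-feature fluorescence intensity in arbitrary units.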
row,Sequence,binding signal
1,CCAGTAATTATTGCAGCAGACATGAAATAATGCAATTGCCCGGAGTCACCTAGTGCAG,24200 fluorescence intensity (a.u.)
2,TCGGCAATACAAATCAATCAAATCACAAACTTCCTCTGCCCGGAGTCACCTAGTGCAG,15300 fluorescence intensity (a.u.)
3,CAAATGTAATTATAGTACAATCGTAGTATAATTGCACTGTCGGAGTCACCTAGTGCAG,18900 fluorescence intensity (a.u.)
4,AATAATTGTGGACCAGATCATTTTCGTCCGTTCGAAACTACGGAGTCACCTAGTGCAG,7560 fluorescence intensity (a.u.)
5,TTAATTAATTGCAAGCTAATTAAGCTAGCTGATAACCATACGGAGTCACCTAGTGCAG,35300 fluorescence intensity (a.u.)
6,TTGGATTGAATAAATTTCATAAGAATTTTAAAGGATTTTACGGAGTCACCTAGTGCAG,16300 fluorescence intensity (a.u.)
7,CACTAATTTTGTAAGGTGTGGCTTCTAATATAAGTTGTGCCGGAGTCACCTAGTGCAG,18900 fluorescence intensity (a.u.)
8,ACAAATGGAAGTTAATATAATTAACTCAATTTAGTATCGTCGGAGTCACCTAGTGCAG,20700 fluorescence intensity (a.u.)
9,CATTAATTATGCTAGAGATTTGTCACTTGTCGACGTCGCTCGGAGTCACCTAGTGCAG,36600 fluorescence intensity (a.u.)
10,TAAATTGAGAAAGTCTAGTTTTAGTAATCGACCAATTCGTCGGAGTCACCTAGTGCAG,11000 fluorescence intensity (a.u.)
11,TTAAGACATATAATTAGAAATCCGTTATAACAAGCAGGTACGGAGTCACCTAGTGCAG,7090 fluorescence intensity (a.u.)
12,CTAAACTCCCTATCAATTTTCACCACCTCCACCAAACAAGCGGAGTCACCTAGTGCAG,6760 fluorescence intensity (a.u.)
13,CCAATCCTAAATTTAAATATGTACATACATGATTCGTTACCGGAGTCACCTAGTGCAG,3730 fluorescence intensity (a.u.)
14,CATGATGTTATCATTAACATATGTGAGTCTGATGAATTATCGGAGTCACCTAGTGCAG,5420 fluorescence intensity (a.u.)
15,TCTAACATTATTGATTGTTTCTCTTTTAGTTGAATAGCTACGGAGTCACCTAGTGCAG,35900 fluorescence intensity (a.u.)
16,TTCTCAATCAATTACAGCTCTCTTCTATTTAATTCTAAACCGGAGTCACCTAGTGCAG,30900 fluorescence intensity (a.u.)
17,TAGCTGACGGCAATCAGCCCGCCGCCTTTCCAGTCGTTGTCGGAGTCACCTAGTGCAG,3980 fluorescence intensity (a.u.)
18,ATCCAATCCAATCCAATCCACGATCCAATTTGGTTGCTGGCGGAGTCACCTAGTGCAG,6960 fluorescence intensity (a.u.)
19,GCTCTAGATGTAATTATGGGAGATATTAATCATAGATTTCCGGAGTCACCTAGTGCAG,7350 fluorescence intensity (a.u.)
20,TCCTTTTGTTTTCCTATCTAATTACTTCTTATATCTATTCCGGAGTCACCTAGTGCAG,4090 fluorescence intensity (a.u.)
21,ATAAATTATCCGAGTACTAATACGTTGAATAAGGTACAAACGGAGTCACCTAGTGCAG,3520 fluorescence intensity (a.u.)

row,Sequence,binding signal
1,TTTATAATTTCTAAATCTAAATTAAACAAAACAGTTAATACGGAGTCACCTAGTGCAG,3910 fluorescence intensity (a.u.)
2,TAAACCATCAAATTGACATGAGTAGCTCGCCAAATCCAAACGGAGTCACCTAGTGCAG,17500 fluorescence intensity (a.u.)
3,AATTTAATTAATCATGGCATTGGGCAAAAGCTTATAAAAGCGGAGTCACCTAGTGCAG,21400 fluorescence intensity (a.u.)
4,ATATATATATATATATATATATACACTATATACTATACCGCGGAGTCACCTAGTGCAG,19200 fluorescence intensity (a.u.)
5,CAAAGTGGATTGAACTGTCGCGGTTTGACGCGAATCTCGACGGAGTCACCTAGTGCAG,4510 fluorescence intensity (a.u.)
6,CAAATAGGAGATGAATGATTTAAGACTACCACCCCGTTCACGGAGTCACCTAGTGCAG,4540 fluorescence intensity (a.u.)
7,AGTCAGATGCTCATAATTGAAAGAAATGCTAGGGCCTGAACGGAGTCACCTAGTGCAG,15200 fluorescence intensity (a.u.)
8,ACAACAGGCTGTAATTGAGTTATGGACTAGAGATAAGTTTCGGAGTCACCTAGTGCAG,8270 fluorescence intensity (a.u.)
9,AGAACTAATTTAACACGTAACAAAAGTTTAATGACCGAATCGGAGTCACCTAGTGCAG,14500 fluorescence intensity (a.u.)
10,ATCATGATAATTGATGAGTTAAATGAATCAGCTGGATATTCGGAGTCACCTAGTGCAG,42100 fluorescence intensity (a.u.)
11,TGAATTCAATCACGCTATCAGTACAACAACAACATCTTAACGGAGTCACCTAGTGCAG,11900 fluorescence intensity (a.u.)
12,ACTAAATTATACCATTTACATGACTATGCATTCAGAAAATCGGAGTCACCTAGTGCAG,7120 fluorescence intensity (a.u.)
13,AGTTTGGTTATATTGTAATTGAATGTAATCTGCTTTACAACGGAGTCACCTAGTGCAG,5450 fluorescence intensity (a.u.)
14,AATACGTGATAGAAATCGTCTGATACACGACAGGTATCGCCGGAGTCACCTAGTGCAG,5480 fluorescence intensity (a.u.)
15,CAGTTAAATTACACCTGGTAGTACCATTTTGAGATGTAAGCGGAGTCACCTAGTGCAG,6870 fluorescence intensity (a.u.)
16,TGGGTCCACTAATTTAAATGAAAATCAACGGTGGGATTAGCGGAGTCACCTAGTGCAG,6380 fluorescence intensity (a.u.)
17,CTTCAAAATCATGTATAAATTGTTTTAAATCACCATGTAGCGGAGTCACCTAGTGCAG,7740 fluorescence intensity (a.u.)
18,AGCCAATTCACACAATAATTGCTTACTATACTATTAATATCGGAGTCACCTAGTGCAG,4330 fluorescence intensity (a.u.)
19,TACATGCTAATTAAACACTTCTATTACTACGTACAGAGCACGGAGTCACCTAGTGCAG,8340 fluorescence intensity (a.u.)
20,TTGACAGATGTAATTATAGTACAATCATAGTGTAATTACACGGAGTCACCTAGTGCAG,30700 fluorescence intensity (a.u.)
21,CAAGGATATTTAGATAATTGACATAGACCGAGATGATACACGGAGTCACCTAGTGCAG,31400 fluorescence intensity (a.u.)

row,Sequence,binding signal
1,ATAATTGACATGTGGGCCCACGATTTCTATTATTTCCAAACGGAGTCACCTAGTGCAG,44100 fluorescence intensity (a.u.)
2,CCTAATTAAGTGGATTTTAGTTTTATATATTATTTAACTTCGGAGTCACCTAGTGCAG,25700 fluorescence intensity (a.u.)
3,ATATATATATATATATATATATATATATTATCGCTAATAACGGAGTCACCTAGTGCAG,31200 fluorescence intensity (a.u.)
4,TACAAAATCATCCATCAACCGCAAAATCAGATATCGACCGCGGAGTCACCTAGTGCAG,3560 fluorescence intensity (a.u.)
5,GAGTATATCATTTCTCAATTTATTATTTATAGGAGTGTAGCGGAGTCACCTAGTGCAG,4750 fluorescence intensity (a.u.)
6,CCCGATTAATATGATAATTTCTAGGCCGTGAGAGTGAACACGGAGTCACCTAGTGCAG,18400 fluorescence intensity (a.u.)
7,CTCCACGTGACTGAAATGCCCTCCGTACTTAAACCACCAACGGAGTCACCTAGTGCAG,3440 fluorescence intensity (a.u.)
8,ATGTTTGACATAGATAAATTAAAATCGGGAAGAGTGCTACCGGAGTCACCTAGTGCAG,14300 fluorescence intensity (a.u.)
9,GGGGCGGTGGCGGCGGTGGATTGGGCGGTAACGCGATGGCCGGAGTCACCTAGTGCAG,4080 fluorescence intensity (a.u.)
10,GCCAATTGAGAATTTGAGATCGTTCGATCATCACCTCGTTCGGAGTCACCTAGTGCAG,3760 fluorescence intensity (a.u.)
11,TTTTCTGATAAAATTTACAATCAAATGACTTTAAAGAATCCGGAGTCACCTAGTGCAG,3830 fluorescence intensity (a.u.)
12,AACACTAAATTTCAATTCAGTTTCAGCATATACGAATAGGCGGAGTCACCTAGTGCAG,8250 fluorescence intensity (a.u.)
13,CTAATTTGCCAGTCAAATATAGTGGAGGACGAGAAATGGTCGGAGTCACCTAGTGCAG,17400 fluorescence intensity (a.u.)
14,CTATTACTAATCTATATAATGGACATAGGGCTGGAAAGCACGGAGTCACCTAGTGCAG,4370 fluorescence intensity (a.u.)
15,GCTATGATTAACCGTAAGCTATCTACAAGAGTATAGATCCCGGAGTCACCTAGTGCAG,13800 fluorescence intensity (a.u.)
16,GATTGATTCCACTCAAGATTGTCGTCAATCGGTCTCTGCACGGAGTCACCTAGTGCAG,11000 fluorescence intensity (a.u.)
17,ATTTTGATAATGTTGCTAAATTTTAGCAAGATTTCATATGCGGAGTCACCTAGTGCAG,3690 fluorescence intensity (a.u.)
18,AGGATTGGGATTAAATGTAAGAGGAAGAATGAATGGTTAGCGGAGTCACCTAGTGCAG,6070 fluorescence intensity (a.u.)
19,GGCTTAATGGCCTTAACTGAGGAATGGACCACTTCCAAGCCGGAGTCACCTAGTGCAG,17000 fluorescence intensity (a.u.)
20,TGATGTAATTGCCTTTGCTTGTCCCTCAGAAGTATTCGTTCGGAGTCACCTAGTGCAG,16700 fluorescence intensity (a.u.)
21,GTTTGAACAGTCAATTGATTGGGCTCACCAATTAGAGATGCGGAGTCACCTAGTGCAG,50000 fluorescence intensity (a.u.)

row,Sequence,binding signal
1,TGTGTTGATTAAATCAAAATTCTCAATAAAATACACTAGTCGGAGTCACCTAGTGCAG,24700 fluorescence intensity (a.u.)
2,AGATTGACGGGGATGTCATTGTGCCTGAGCAGATATAGAACGGAGTCACCTAGTGCAG,8360 fluorescence intensity (a.u.)
3,AAGCAAATTAAGAAGATTGCCCACTTTCGAAAGCGCCAAGCGGAGTCACCTAGTGCAG,9780 fluorescence intensity (a.u.)
4,TGTAATCTATCAAGAATCCATTACTGAGACACAAATGCATCGGAGTCACCTAGTGCAG,4280 fluorescence intensity (a.u.)
5,TGATGATGCACGCTGATTGACCGTTCTATGCAGATCCCATCGGAGTCACCTAGTGCAG,26900 fluorescence intensity (a.u.)
6,AGTTTTCAAAATTTGACTTTAAAATTTAAATCTTAAATCACGGAGTCACCTAGTGCAG,3970 fluorescence intensity (a.u.)
7,ATTGATGAACTGATATGCGCTGAGATTCCTGACAGAGACACGGAGTCACCTAGTGCAG,7660 fluorescence intensity (a.u.)
8,CCTTATTGAAATGAAGGTTAACTAAGTGTCCTTCCTAATGCGGAGTCACCTAGTGCAG,3550 fluorescence intensity (a.u.)
9,ATTAATTAGTCTTAATAGATTCGTCTCGCAATTTCCTGACCGGAGTCACCTAGTGCAG,45700 fluorescence intensity (a.u.)
10,CTCAATAATTAAGTTCTTGATTAACATTGATATTACTTTCCGGAGTCACCTAGTGCAG,24600 fluorescence intensity (a.u.)
11,TGGAACATTGTTGATTGGCGAGCTGGCACGCATGCTAGGTCGGAGTCACCTAGTGCAG,18600 fluorescence intensity (a.u.)
12,TTAAATTGGCTATATATGTTTAGTTGGCTATACTAATTACCGGAGTCACCTAGTGCAG,18900 fluorescence intensity (a.u.)
13,AGGTGATTTGTCAAGTGAGGACTTTGGAGATTGTGATTGGCGGAGTCACCTAGTGCAG,25100 fluorescence intensity (a.u.)
14,TTACTGATTTACTGTTAATAAGACAGGCAACACAGACTTACGGAGTCACCTAGTGCAG,21500 fluorescence intensity (a.u.)
15,GCCAATTTAACAGTCATTGTACCAAATTGTTCTCTATGTTCGGAGTCACCTAGTGCAG,8670 fluorescence intensity (a.u.)
16,TTCTTTCTTAATTACAGTCAGTCTTAAAAGTGAAATTTTGCGGAGTCACCTAGTGCAG,10100 fluorescence intensity (a.u.)
17,TGGTTGATGGCTTTTGATTCAATTGATATCAAAACGATAACGGAGTCACCTAGTGCAG,11800 fluorescence intensity (a.u.)
18,GTAAATTTGTTCCGGCCTGAACTTATTGGAGACGCTCACTCGGAGTCACCTAGTGCAG,8600 fluorescence intensity (a.u.)
19,AGTTAACTCGACAATCATTGGGTGGTGTTCAGGTAACTTGCGGAGTCACCTAGTGCAG,14700 fluorescence intensity (a.u.)
20,GGGTCCTTGATTTCCTGTGAATCACTCATTTGATACAGAACGGAGTCACCTAGTGCAG,4610 fluorescence intensity (a.u.)
21,GATTTTGTCATCAGTGACCACTAATCACTGACCAAGACCACGGAGTCACCTAGTGCAG,4240 fluorescence intensity (a.u.)
